For one molecule, Kd results are on record in article PMC9163697 (2022).

This test deals with T1, IKKγ(150–272) (UniProt Q9Y6K9 150-272).
T1 chain: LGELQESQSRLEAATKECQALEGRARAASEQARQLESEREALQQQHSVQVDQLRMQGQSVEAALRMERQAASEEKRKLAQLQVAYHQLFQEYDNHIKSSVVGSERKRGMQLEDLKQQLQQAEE
The test is described as follows: ITC. Background: ITC needs no label: the signal is the heat of the interaction.

B1: WT vFLIP([…]) (domain or fragment)
chain: not shown
The term Kd denotes the concentration at which binding is half-saturated. Low readings indicate a tighter complex, high ones a looser complex. Molecule B1 registered a Kd of 307 nM. This lies in the sub-micromolar range.
